{"source": "PubChem BioAssay", "key": {"[1]": {"experiment": "reduced OD of T4-infected AddAB+ E. coli – absorbance, E. coli V3065, T4 phage, triplicate, AddAB inhibitor project, confirmation (AID 488942;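 active = mean inhibition above a set limit taken from the earlier primary screen, cut at about 13% in these data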;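 note: higher means less bacterial growth since AddAB block lets phage replicate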)", "details": "E. coli V3065 expressing H. pylori AddAB, at 11.9 µM, stronger effect = higher value, T4 phage with gene 2 nonsense mutations"}, "[2]": {"experiment": "reduced OD of phage-infected RecBCD+ V66 E. coli – absorbance, mutant T4 phage, counter-screen for AddAB inhibitor project (AID 488955);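 note: optical density read after an 18 h incubation at 37 °C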", "details": "OD growth, at 11.9 µM, stronger effect = higher value"}, "[3]": {"experiment": "bacterial growth inhibitors – absorbance, counter-screen for AddAB inhibitor project, confirmation (AID 488956; in the data active = inhibition above about 25%)", "details": "bacterial viability, absorbance (AddAB counterscreen); at 11.9 µM; stronger effect = higher value"}, "[4]": {"experiment": "reduced OD of V66 E. coli with T4 gene 2 phage – absorbance, RecBCD inhibitor project, confirmation (AID 651982;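 active = mean inhibition over triplicates exceeding the hit threshold derived in the original primary screen, cut at about 11% in these data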)", "details": "E. coli V66 + T4 2- phage, growth OD; at 11.9 µM; stronger effect = higher value"}, "[5]": {"experiment": "bacterial growth inhibition – absorbance, high throughput, counter-screen for RecBCD inhibitor project (AID 651983; in the data active = inhibition above about 20%;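 note: E. coli strain V66 grown with compound alone and no phage infection; 0% = bacteria with DMSO vehicle only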)", "details": "E. coli viability, absorbance (OD) growth; at 11.9 µM; stronger effect = higher value"}, "[6]": {"experiment": "reduced optical density, T4-challenged addAB+ bacteria – absorbance, E. coli V3065, T4 phage, counter-screen for RecBCD inhibitor project, confirmation (AID 651984;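 active = mean inhibition above the solvent-only control wells' mean plus 3 SD, cut at about 22% in these data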;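 note: higher means less bacterial growth from phage killing when AddAB is blocked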)", "details": "E. coli expressing H. pylori AddAB + T4 phage, OD growth; at 11.9 µM; stronger effect = higher value; gene 2 mutant T4, recBCD-deleted host"}}, "note": "The entries are a selection whose mix differs from that of the whole data set. Activity calls are given as the source filed them.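 Rule for the calls, unless noted: active = mean inhibition above the mean of solvent-only control wells plus 3 SD (cut at about 4% in these data); inactive = the rest.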", "data": [{"smiles": "O=C1OCCN1/N=C/c1ccc([N+](=O)[O-])o1", "values": [{"measurement": "inhibition", "setting": "[1]", "value": "active: 103%"}, {"measurement": "inhibition", "setting": "[2]", "value": "active: 102%"}, {"measurement": "inhibition", "setting": "[3]", "value": "active: 105%"}, {"measurement": "inhibition", "setting": "[4]", "value": "active: 104%"}, {"measurement": "inhibition", "setting": "[5]", "value": "active: 106%"}, {"measurement": "inhibition", "setting": "[6]", "value": "active: 103%"}]}, {"smiles": "Cc1cc(/C=C\\c2ccc3cc(N(C)C)ccc3[n+]2C)c(C)n1-c1ccccc1", "values": [{"measurement": "inhibition", "setting": "[2]", "value": "active: 11.8%"}]}, {"smiles": "CCn1cc(C(=O)O)c(=O)c2cc(F)c(N3CCN(C)CC3)cc21", "values": [{"measurement": "inhibition", "setting": "[1]", "value": "active: 96%"}, {"measurement": "inhibition", "setting": "[2]", "value": "active: 98.5%"}, {"measurement": "inhibition", "setting": "[3]", "value": "active: 96.6%"}, {"measurement": "inhibition", "setting": "[4]", "value": "active: 99.5%"}, {"measurement": "inhibition", "setting": "[5]", "value": "active: 100%"}, {"measurement": "inhibition", "setting": "[6]", "value": "active: 100%"}]}, {"smiles": "O=C(N/N=C/c1ccc(O)c2ncccc12)c1cccc(Br)c1", "values": [{"measurement": "inhibition", "setting": "[4]", "value": "active: 11.8%"}, {"measurement": "inhibition", "setting": "[5]", "value": "inactive: 14.9%"}, {"measurement": "inhibition", "setting": "[6]", "value": "inactive: 15.1%"}]}]}
